Consider 71 compounds from PubChem BioAssay AID488969 (Vanderbilt High Throughput Screening Facility, 2010).

SMILES strings stand for the structures. In all, about 110,000 compounds were measured (“z-score”: median about -0.1, highest 2% from about 2 on). The list shows a part of the results.

The target in the assay is Metabotropic glutamate receptor 8 (Rattus norvegicus) (UniProt P70579). The experiment in a line: mGluR8 Gi/Go-coupled signaling modulation – cell-based, rat, thallium flux, HTS, primary screen (AID 488969). The settings on record: HEK293 rat mGluR8, GIRK (G protein-gated inwardly rectifying potassium channel) thallium flux, FluoZin2; at 10 µM; stronger effect = higher value; submaximal glutamate (EC20) added with thallium.
Chain of UniProt P70579 (P70579 whole entry, looked up): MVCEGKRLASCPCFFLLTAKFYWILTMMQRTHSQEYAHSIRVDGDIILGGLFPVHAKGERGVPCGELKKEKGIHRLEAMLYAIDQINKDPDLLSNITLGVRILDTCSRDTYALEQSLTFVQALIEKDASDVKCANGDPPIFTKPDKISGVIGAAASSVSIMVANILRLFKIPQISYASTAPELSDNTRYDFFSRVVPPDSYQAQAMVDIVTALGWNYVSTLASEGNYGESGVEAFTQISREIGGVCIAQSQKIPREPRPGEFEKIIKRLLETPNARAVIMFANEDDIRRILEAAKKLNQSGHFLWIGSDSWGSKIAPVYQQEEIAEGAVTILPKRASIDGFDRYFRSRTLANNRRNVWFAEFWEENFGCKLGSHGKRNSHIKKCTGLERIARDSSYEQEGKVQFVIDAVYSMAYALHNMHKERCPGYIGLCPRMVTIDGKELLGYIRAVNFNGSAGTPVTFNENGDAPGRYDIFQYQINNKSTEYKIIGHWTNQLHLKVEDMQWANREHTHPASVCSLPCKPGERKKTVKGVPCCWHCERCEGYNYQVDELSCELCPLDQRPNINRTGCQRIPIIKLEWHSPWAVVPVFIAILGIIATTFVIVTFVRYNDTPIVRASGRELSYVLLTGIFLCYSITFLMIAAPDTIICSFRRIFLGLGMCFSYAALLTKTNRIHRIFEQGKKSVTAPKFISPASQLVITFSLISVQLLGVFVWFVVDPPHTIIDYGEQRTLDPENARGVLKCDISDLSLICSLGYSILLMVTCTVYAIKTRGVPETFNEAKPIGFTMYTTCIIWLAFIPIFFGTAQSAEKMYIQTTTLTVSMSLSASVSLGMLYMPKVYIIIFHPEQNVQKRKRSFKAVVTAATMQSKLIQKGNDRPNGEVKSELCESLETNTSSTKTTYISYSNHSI
`CC(C)c1nc(SCC(=O)N2CCCC2)c2ccccc2n1` yielded a z-score of -0.322.

In turn, `O=C(O)Cn1nnnc1-c1ccc(F)cc1` came in with a z-score of 0.777.

`N#CCc1nn(-c2ccccc2)c(N)c1C#N`: the z-score was -0.151.

For `CN1C(=O)CSC1=NCC12CC3CC(CC(C3)C1)C2`, the z-score is -0.123.

`COc1ccc(NC(=O)C(c2ccccc2)N(C)C(=O)c2ccc(=O)[nH]c2)cc1` (stereo unspecified) gave a z-score of -0.215.

`CCOc1cc(/C=C2/C(=O)N(c3ccccc3)N=C2C)ccc1OC(=O)c1ccco1` registered a z-score of -0.0716.

The compound `CCOC(=O)c1c(C)[nH]c(C)c1C(=O)COC(=O)[C@@H](NC(=O)c1ccccc1OCC)C(C)C` registered a z-score of 0.596.

`CCn1c(SCc2ccc(C)cc2)nnc1-c1nn(-c2ccccc2)ccc1=O` came in with a z-score of -0.34.

Take `CCOc1ccc2ccccc2c1C(=O)N1CCN(c2ccccc2)CC1`: the z-score was found to be 0.245.

In turn, `Cc1cc(C(=O)NNC(=S)NC(C)c2ccccc2)c2ccccc2n1` (stereo unspecified) gave a z-score of 0.0101.

`COC(=O)C1=C(C)N(c2ccc(S(N)(=O)=O)cc2)C(=O)C1` returned a z-score of 0.506.

`CN(Cc1cccs1)C(=O)COc1cccc(-n2cnnn2)c1` registered a z-score of -0.228.

`CN(c1cccc(NC(=O)c2ccc(Cl)c(S(=O)(=O)Nc3ccccc3)c2)c1)S(C)(=O)=O`: the z-score was found to be 0.229.

`O=C(NC1CCCCC1)C12CC3CC(C1)CC(n1cncn1)(C3)C2` gave a z-score of -0.163.

As to `Cc1nn(Cc2c(Cl)cccc2Cl)c(Cl)c1/C=N/NC(=O)c1cccnc1`, the z-score is -0.656.

`CCN(CC)c1ccc2c(c1)C(=O)N(C)C2=O` displayed a z-score of 0.142.

As to `Cc1cc2nc(SCCOC(=O)Nc3cccc(Cl)c3)nc(C)c2cc1C`, the z-score was -0.19.

Compound `Cc1cc(Cl)ccc1OCC(=O)NCCC(=O)O` had a z-score of 0.939.

Turning to `CCOC(=O)CN1C(=O)C(Sc2nnc(-c3ccccc3OC)s2)CCc2ccccc21` (stereo unspecified), the z-score was 0.287.

Compound `O=C1C(Cl)=C(N2CCCCCC2)C(=O)N1c1ccccc1` came in with a z-score of -0.402.

`COc1cc(C(=O)NCCC(C)C)ccc1OCc1ccc(Cl)cc1Cl` gave a z-score of 0.00586.

For `Cc1c(C(=O)N2CCCCC2)nnn1-c1nonc1N`, the z-score is -0.565.

Regarding `CCCC(=O)C1=C(O)C(C(=O)OC)C(C)(C)CC1=NC(C)(C)C` (stereo unspecified), the z-score was -0.418.

`COc1cc(S(=O)(=O)N2CCCCC2)ccc1NC(=O)/C=C/c1ccccc1`: the z-score is -0.398.

On to `Cc1ccccc1N=CC=C1OC(C)(C)C(C)(C)O1`, for which the z-score stood at 0.193.

In turn, `Cc1ccc(CNc2ncnc3cc(Cl)ccc23)o1` had a z-score of 0.539.

On to `N#CC(/C(=N/S(=O)(=O)c1cccs1)c1ccccc1)c1nc2ccccc2[nH]1` (stereo unspecified), for which the z-score was -0.494.

The compound `FC(F)(F)c1nc2ccccc2nc1N/N=C/c1c(Cl)cccc1Cl` gave a z-score of -0.227.

`CCn1c(-c2ccccc2)c(C(=O)O)c2ccccc21` returned a z-score of -0.229.

For the compound `COc1ccccc1/C=C1\SC(=S)N(CCC(=O)NC2=NCCS2)C1=O`, the z-score is -0.0872.

Regarding `FC(F)(F)c1nnc2c(Sc3ccccc3)nc3ccccc3n12`, the z-score worked out at 0.155.

`CCN(CC)c1ccc(NC(=O)Cn2c(C(C)NC(=O)c3ccccc3)nc3ccccc32)cc1` (stereo unspecified) displayed a z-score of -0.332.

In the case of `Cc1cc(O)ccc1C1(c2ccc(O)cc2C)OC(=O)c2ccccc21`, the z-score is -1.95.

With `Cn1c(SC(C(=O)Nc2ccc(F)cc2)c2ccccc2)nc2ccccc21` (stereo unspecified), the z-score amounted to 0.038.

`O=C(CCc1[nH]c2ccccc2c1Sc1ccccc1)NCCO` returned a z-score of 1.09.

In turn, `CC(C)(C)NC(=O)CC(CC(=O)O)c1ccccc1` (stereo unspecified) showed a z-score of -0.6.

Compound `CCOC(=O)C1=C(N)n2c(s/c(=C\c3ccco3)c2=O)=C(C(=O)OC(C)C)C1c1ccco1` (stereo unspecified) registered a z-score of -0.118.

In turn, `Cn1c(=O)c2c(ncn2CC(=O)OCC(=O)Nc2cc(Cl)ccc2Cl)n(C)c1=O` yielded a z-score of 0.0725.

As for `CCOc1ccc(C(=O)OCC(=O)Nc2cc(C)on2)cc1OCC`, the z-score amounted to 0.224.

`Cc1nn(CC#N)c(=O)n1-c1ccc(F)cc1` displayed a z-score of 0.483.

The compound `CCc1nc(Cl)c(C#N)c2c1CSC(C)(C)C2` returned a z-score of -1.75.

With `O=C(CSc1nnc(-c2ccccc2)n1C1CCCCC1)N1CCCC1`, the z-score is 0.42.

`CC1CC(C)CN(C(=O)C(NS(=O)(=O)c2ccc(Br)s2)c2ccccc2)C1` (stereo unspecified): the z-score is 0.702.

In turn, `CC(C)(C)NC(=O)Cn1nnc(-c2ccc(Cl)cc2)n1` displayed a z-score of -0.11.

Turning to `CN(/C=C/C(=O)C(F)(F)C(F)(F)F)Cc1ccccc1`, the z-score worked out at 0.0741.

For the compound `C/C(N)=C(/C#N)C(=O)CSc1nc2ccccc2c(=O)n1CCCOC(C)C`, the z-score worked out at 0.998.

In turn, `Cc1cccc(-c2cc3nc4c(c(N5CCOCC5)n3n2)CCCC4)c1` yielded a z-score of -0.292.

Consider `O=C(CSc1nnc2c3c4c(sc3ncn12)CCCC4)NCc1ccco1`, for which the z-score is -1.13.

In the case of `CCCOc1ccc(-c2cnc(N)s2)cc1`, the z-score worked out at 0.0244.

`CC(=O)CCc1c(C)[nH]c2ccccc2c1=O` came in with a z-score of -0.0605.

In the case of `CCSC1(SCC)N=C(N)C2(C#N)C(c3ccc(F)cc3)C12C#N` (stereo unspecified), the z-score was -0.269.

In the case of `O=C(c1cc([N+](=O)[O-])cc([N+](=O)[O-])c1)N(c1ccccn1)c1ccccn1`, the z-score is -0.0137.

For `O=C(OCC(=O)N1CCc2ccccc21)c1cccc(S(=O)(=O)N2CCCc3ccccc32)c1`, the z-score is -0.134.

As to `OC(CNCc1ccccn1)c1ccccc1` (stereo unspecified), the z-score is -0.286.

`COc1ccc(NC(=O)C2CCCN2S(=O)(=O)c2ccc(F)cc2)cc1` (stereo unspecified) registered a z-score of -0.0947.

The compound `Cc1cccc(CN2CCN(CC(=O)N3CCCC3)C2=O)c1` had a z-score of -0.106.

`CN(C)c1ccc(NC(=O)c2ccncc2)c2ccccc12` had a z-score of -0.372.

`CN(C1CCCCC1)S(=O)(=O)c1ccc(NC(=O)c2ccc(Br)o2)cc1` had a z-score of -0.647.

Regarding `COc1ccc([N+](=O)[O-])c2c(=O)ccoc12`, the z-score was -0.518.

`Cc1cc(COc2ccccc2OCCN2CCN(C)CC2)no1` displayed a z-score of 0.0946.

Compound `Cc1ccc(-c2nnc(SCC(=O)NC3CCS(=O)(=O)C3)nc2-c2ccc(C)cc2)cc1` (stereo unspecified) returned a z-score of -0.133.

In turn, `Cc1cc(=O)oc2cc(OS(C)(=O)=O)ccc12` showed a z-score of -0.824.

In turn, `CCc1nc(SCC(=O)NCc2ccco2)c2c(=O)n(C)c(=O)n(C)c2n1` had a z-score of 0.725.

As to `O=C1CC(=O)N(Cc2ccco2)C(=S)N1`, the z-score is -0.111.

In turn, `Cc1nc2ccccc2cc1C(=O)N/N=C/c1ccco1` had a z-score of 0.211.

`Nc1nc(C23CC4CC(CC(C4)C2)C3)cs1` registered a z-score of -0.25.

In turn, `COc1ccc(CNC(=O)C(c2ccncc2)N(C(=O)Cc2cccs2)c2ccccc2)cc1` (stereo unspecified) returned a z-score of -0.236.

Take `CCOc1cc(CNc2ccc3c(c2)OCCO3)cc(Br)c1OC`: the z-score worked out at 1.22.

`CCc1nnc(NC(=O)C2COc3ccccc3O2)s1` (stereo unspecified) came in with a z-score of 0.0066.

For the compound `Cc1ccc(-c2noc(CCC(=O)NCC3CCN(Cc4cccc(C)c4)CC3)n2)cc1`, the z-score was 2.64.

As for `CCN1CCN(CCNC(=O)c2cn(C(C)c3ccccc3F)nn2)CC1` (stereo unspecified), the z-score came to 0.0678.
